# Assay results published in the supplement of paper PMC11417369.
# The list shows a part of the results.
# System: PfHDP1 homeodomain (GST-tagged)
# Experiment: gcPBM binding intensity (ln(normalized median fluorescence intensity)); higher = stronger DNA binding
# Outline: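 For binding intensity, the highest Masliner-normalised natural-log median intensity across replicate spots of either probe orientation was taken. Protein bound to the array was stained with Alexa488 anti-GST antibody and scanned at 488 nm. The protein, GST-tagged P. falciparum DNA-binding domains from E. coli at about 25 μg on average, had been applied for 1 h to an Agilent 4 × 180k array of primer-extended double-stranded 36-bp intergenic genomic probes and negative controls.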
row,Sequence,gcPBM binding intensity (ln)
1,AAAAAGAAGAATAATACACACAAATTATTTTATATA [CACACA_site1919],6.42
2,TATTCCAAAAATGTGTGTACATAAATACAATATTAT [XGTACX_site2653],6.49
3,TTAAGATGCATAAATACATGCAAAGTAAATAATTCT [TGCATGCA_site517],6.08
4,TATAATCCATAAGAAGCACACACATATATATATATT [CACACA_site8394],6.6
5,AATAAATATTAAATGACAAAAAAAAAAAAAAAAGGG [XGTACX_negctrl_site15],6.6
6,ATTATAAGAATTAAAAGAAACAAAATTTTAATTATA [CACACA_negctrl_site610],6.39
7,CATATAATTATTTTCACACATATAACTACATCTATA [CACACA_site5915],6.68
8,TAAGATCCTTAAAACGCATGCAGTATTTTTATTTCT [TGCATGCA_site532],6.16
9,TAGCCAAAAGGATATGCACACACACCCACATATATA [CACACA_site8684],8.89
10,ATATAAATAAAAAAAAGTACATAATATATAAAAATA [XGTACX_site3065],6.55
11,CTTTTACGTTTAGGATGTACATTTAAAAAAAAAGAA [XGTACX_site8032],6.65
12,TAAGGGATATGTATATGTACATACAAATATATATAA [XGTACX_site2892],6.63
13,TGTAGATTTTGTAACACACACATATAAATACAGATA [CACACA_site5343],6.68
14,AATTTCATTTTTAGAAGTACATTTATATTAAAAATC [XGTACX_site2888],6.08
15,TTTGCTTCGATATATTCACACATTTTTTTTCTTATT [CACACA_site4499],6.92
16,AAATGTAATAAATATACACACACAAATATATATATA [CACACA_site8754],8.64
17,TCTTTCTGCTCTTATACACACAAATAAAGATTTTTT [CACACA_site2700],8.08
18,CATTGACCATTAATTTGTACACAAGGGGAAATGAGG [XGTACX_site1756],6.64
19,TATATATATATATATATATATATATATATATATATT [CACACA_negctrl_site1440],9.47
20,ATGAAATTTTCATATTGTACTATTAAAAATATATTT [XGTACX_site1989],6.24
21,TTAATTTGTTCTTACACACACATATAAATATATTTA [CACACA_site6676],6.99
22,ATATTTAAGGCGTGTATGCACACGACTATTCCGTAT [CACACA_site1080],8.25

row,Sequence,gcPBM binding intensity (ln)
1,TATTTTGTTTTAAAAGTACACACTTTTAATTAGATT [CACACA_site1180],6.58
2,TTATCATTATATAGTTGTACATATTTATTTATAAAA [XGTACX_site2310],6.61
3,TTTGTATAATACATGTGTACGTATTTTTATATAAAT [XGTACX_site8656],6.8
4,AGAACTAAAAGAACATGTACATAAATTCTAAATAAT [XGTACX_site4084],6.38
5,ATGATACTAAAAAATTGTACATATAACAAAAGGTAT [XGTACX_site2527],6.73
6,CATATATTTTGAAACACACACATATATAATATACAT [CACACA_site1158],6.66
7,ATAATTGTCCATTTTTTCTTTTTTTTTTTCTTTTTA [CACACA_negctrl_site928],5.94
8,CGCACAGACGGACACACACACACATATATATATATA [CACACA_site5249],9.17
9,AAAAAAAAAAAAAAAACACACATTTAGCAATCTACA [CACACA_site3706],6.62
10,ATATGATCATACTGTGCATGTTAATGCAAATTTTAT [TGCATGCA_site984],9.78
11,TACATATATTATACATGTACACATTTATACATATCG [XGTACX_site2866],6.54
12,TATATGTATTTGTATACACACAAATGTATATATTTA [CACACA_site1265],6.46
13,ATGTATTAAAATTTATGTACTTATATATAAATATAT [XGTACX_site1025],6.23
14,TTATATGGATATACAGTGCATATATACATATAAGTG,7.89
15,AATATATATACTATAACACACATACACCCAAAAAAA [CACACA_site4453],7.26
16,AAAAAAAAAAGAAACACACACATATATATATAGAAT [CACACA_site1777],6.79
17,CATACCTTTTAATGTACACACATTTCTTTTTTGTTA [CACACA_site892],6.75
18,TATAAACATAATATTTAACACACATGAAGATGTATA [CACACA_site8252],6.29
19,TTAACAAAACATAAGGTGCTTAAAATTTTATATCAC [GTGCAC_site9839],6.36
20,TCTGTTAAACAAAAAAGTACTAAAATAATGTAAAAT [XGTACX_site6826],6.68
21,TATATATTGTTATATACACACATGTATTTAAAAAAT [CACACA_site5737],6.35
22,ATTATTATATATGTATGTACTTATATAATATATATA [XGTACX_site5198],6.36
